22 compounds from article PMC9694146, “Novel [1,2,4]triazolo[3,4-b][1,3,4]thiadiazine and [1,2,4]triazolo[3,4-b][1,3,4]thiadiazepine Derivatives: Synthesis, Anti-Viral In Vitro Study and Target Validation Activity” (Molecules, 2022) can be followed below.

A value given as a limit tells only on which side of the number the result lay.

Test [1] has as its system influenza A/Puerto Rico/8/34 (H1N1) virus. The following applies: CC50 (MDCK) / IC50 (influenza A/Puerto Rico/8/34).
The test system is the same in test [2]. Kind of test: organism not typed. Conditions: MDCK, 72 h, read-out: IC50, effective concentration, the concentration resulting in 50% inhibition of virus replication, influenza virus A/Puerto Rico/8/34 in MDCK cells.
Test [3] shares this test system. Kind of test: microbe, parasite or virus in culture. Conditions: H1N1, MDCK, Table 3, repeated from Table 2 for comparison, unit inferred.

In the case of `Sc1nncn1N=CC#Cc1ccccc1` [Compound 1a, 4-((3-phenylprop-2-yn-1-ylidene)amino)-4H-1,2,4-triazole-3-thiol], the “SI, selectivity index; ratio CC50/IC50” value in test [1] is listed as 8. The IC50 in test [2] and in test [3] was 16.2 ± 2.1 µM throughout.

Regarding `Cc1nnc(S)n1N=CC#Cc1ccccc1` [Compound 1b, 5-methyl-4-((3-phenylprop-2-yn-1-ylidene)amino)-4H-1,2,4-triazole-3-thiol], the “SI, selectivity index; ratio CC50/IC50” value in test [1] was 5. Further, the IC50 in test [2] and in test [3] was 24.8 ± 2.9 µM in each case.

`CCc1nnc(S)n1N=CC#Cc1ccccc1` [Compound 1c, 5-ethyl-4-((3-phenylprop-2-yn-1-ylidene)amino)-4H-1,2,4-triazole-3-thiol]: the IC50 in test [2] and in test [3] was 11.3 ± 2.2 µM throughout.

Consider `Sc1nncn1NCC#Cc1ccccc1` [Compound 2a, 4-((3-phenylprop-2-yn-1-yl)amino)-4H-1,2,4-triazole-3-thiol], for which the “SI, selectivity index; ratio CC50/IC50” value in test [1] is reported as greater than 300. Moreover, the IC50 in test [2] and in test [3] was 4.3 ± 1 µM throughout.

Consider `Cc1nnc(S)n1NCC#Cc1ccccc1` [Compound 2b, 5-methyl-4-((3-phenylprop-2-yn-1-yl)amino)-4H-1,2,4-triazole-3-thiol], for which the “SI, selectivity index; ratio CC50/IC50” value in test [1] was greater than 12. Further, the IC50 in test [2] and in test [3] was 106 ± 12.5 µM throughout.

On to `CCc1nnc(S)n1NCC#Cc1ccccc1` [Compound 2c, 5-ethyl-4-((3-phenylprop-2-yn-1-yl)amino)-4H-1,2,4-triazole-3-thiol], for which, in test [1], the “SI, selectivity index; ratio CC50/IC50” value came out at 13. Moreover, the IC50 in test [2] and in test [3] was 37.2 ± 4.1 µM throughout.

In the case of `CCCc1nnc(S)n1NCC#Cc1ccccc1` [Compound 2d, 5-propyl-4-((3-phenylprop-2-yn-1-yl)amino)-4H-1,2,4-triazole-3-thiol], the “SI, selectivity index; ratio CC50/IC50” value in test [1] is 1. For the same compound, the IC50 in test [2] and in test [3] was 101 ± 12.4 µM each time.

In the case of `C1=Nn2cnnc2S/C1=C\c1ccccc1` [Compound 6a, (Z)-7-benzylidene-7H-[1,2,4]triazolo[3,4-b][1,3,4]thiadiazine], the IC50 in test [2] and in test [3] was 34.2 ± 4.2 µM in each case.

With `Cc1nnc2n1N=C/C(=C/c1ccccc1)S2` [Compound 6b, (Z)-7-benzylidene-3-methyl-7H-[1,2,4]triazolo[3,4-b][1,3,4]thiadiazine], the “SI, selectivity index; ratio CC50/IC50” value in test [1] was determined as 4. In addition, the IC50 in test [2] and in test [3] was 99.9 ± 11.8 µM in each case.

On to `CCc1nnc2n1N=C/C(=C/c1ccccc1)S2` [Compound 6c, (Z)-7-benzylidene-3-ethyl-7H-[1,2,4]triazolo[3,4-b][1,3,4]thiadiazine], for which, in test [1], the “SI, selectivity index; ratio CC50/IC50” value came out at 8. In addition, the IC50 in test [2] and in test [3] was 118 ± 12.7 µM throughout.

With `CCCc1nnc2n1N=C/C(=C/c1ccccc1)S2` [Compound 6d, (Z)-7-benzylidene-3-propyl-7H-[1,2,4]triazolo[3,4-b][1,3,4]thiadiazine], the IC50 amounted to 34 µM in test [2] and 33.6 ± 4.4 µM in test [3].

With `C1=Nn2cnnc2SC(c2ccccc2)=C1` [Compound 7a, 8-phenyl-[1,2,4]triazolo[3,4-b][1,3,4]thiadiazepine], in test [1], the “SI, selectivity index; ratio CC50/IC50” value is listed as less than 3. Moreover, the IC50 in test [2] and in test [3] was greater than 13 µM throughout.

Regarding `CCc1nnc2n1N=CC=C(c1ccccc1)S2` [Compound 7c, 3-ethyl-8-phenyl-[1,2,4]triazolo[3,4-b][1,3,4]thiadiazepine], the “SI, selectivity index; ratio CC50/IC50” value in test [1] is on record as less than 2. Besides, the IC50 in test [2] and in test [3] was greater than 3 µM in each case.

For the compound `C(=C1\CNn2cnnc2S1)/c1ccccc1` [Compound 8a, (Z)-7-benzylidene-6,7-dihydro-5H-[1,2,4]triazolo[3,4-b][1,3,4]thiadiazine], the IC50 in test [2] and in test [3] was 39.5 ± 5.1 µM each time.

Turning to `Cc1nnc2n1NC/C(=C/c1ccccc1)S2` [Compound 8b, (Z)-7-benzylidene-3-methyl-6,7-dihydro-5H-[1,2,4]triazolo[3,4-b][1,3,4]thiadiazine], the IC50 in test [2] and in test [3] was greater than 1200 µM throughout.

For the compound `CCc1nnc2n1NC/C(=C/c1ccccc1)S2` [Compound 8c, (Z)-7-benzylidene-3-ethyl-6,7-dihydro-5H-[1,2,4]triazolo[3,4-b][1,3,4]thiadiazine], the “SI, selectivity index; ratio CC50/IC50” value in test [1] is greater than 23. Also, the IC50 in test [2] and in test [3] was 50.3 ± 6.2 µM in each case.

Take `CCCc1nnc2n1NC/C(=C/c1ccccc1)S2` [Compound 8d, (Z)-7-benzylidene-3-propyl-6,7-dihydro-5H-[1,2,4]triazolo[3,4-b][1,3,4]thiadiazine]: the “SI, selectivity index; ratio CC50/IC50” value in test [1] is greater than 19. In addition, the IC50 in test [2] and in test [3] was 58 ± 6.6 µM in each case.

For `C1=C(c2ccccc2)Sc2nncn2NC1` [Compound 10a, 8-phenyl-5,6-dihydro-[1,2,4]triazolo[3,4-b][1,3,4]thiadiazepine], in test [1], the “SI, selectivity index; ratio CC50/IC50” value is recorded as greater than 2. The IC50 in test [2] and in test [3] was 703 ± 82.9 µM in each case.

`Cc1nnc2n1NCC=C(c1ccccc1)S2` [Compound 10b, 3-methyl-8-phenyl-5,6-dihydro-[1,2,4]triazolo[3,4-b][1,3,4]thiadiazepine]: the IC50 in test [2] and in test [3] was 41.4 ± 5.1 µM in each case.

For `CCc1nnc2n1NCC=C(c1ccccc1)S2` [Compound 10c, 3-ethyl-8-phenyl-5,6-dihydro-[1,2,4]triazolo[3,4-b][1,3,4]thiadiazepine], the “SI, selectivity index; ratio CC50/IC50” value in test [1] is on record as less than 3. In addition, the IC50 in test [2] and in test [3] was greater than 300 µM throughout.

Consider `CCC(CC)O[C@@H]1C=C(C(=O)O)C[C@H](N)[C@H]1NC(C)=O` [Oseltamivir carboxylate, reference compound], for which, in test [1], the “SI, selectivity index; ratio CC50/IC50” value is greater than 588. Also, in test [2], the IC50 worked out at 0.17 ± 0.02 µM.

With `CC(N)C12CC3CC(CC(C3)C1)C2` (stereo not shown) [Rimantadine, reference compound], the IC50 in test [2] and in test [3] was 64.1 ± 7.2 µM each time.
